In the supplement of paper PMC10338343:
± gives the standard deviation. Over roughly 3,700 sequences, “pre-steady-state target cleavage rate” has its median near 0.02; the highest 2% begin near 0.23. This is a selection; strong and weak results do not stand in their true shares.

What follows are sequences tested on MILI (PIWIL2) piRISC loaded with Kctd7 piRNA (26 nt) (assay: pre-steady-state target cleavage rate (min^-1); MIWI and MILI are mouse PIWI proteins and EfPiwi is from a freshwater sponge; tags in brackets are library labels; higher = faster piRNA-guided slicing of the target). Settings: guide: Kctd7 piRNA 5'p-UGUUAAUCUCUCAGAGAAGGUGACAG; auxiliary factor: 500 nM mouse GTSF1.
Procedure, shortened: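 Cleave-'n-Seq: a transcribed, DNA-blocked target RNA library (0.1 nM) was mixed with 1 nM active affinity-purified piRISC carrying one synthetic guide, with or without 500 nM GTSF1 partner protein, in HEPES–potassium acetate buffer at 33 °C for 0–8 or 0–960 min. Uncleaved targets were sequenced and normalised to depth and to weakly complementary targets. Three trials were pooled, and k3 was capped at 0.0001 min^-1. The pre-steady-state cleavage rate came from a burst-and-steady-state fit.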

Sequence | pre-steady-state target cleavage rate
UAGUGAGUCACGAUCUCUGAGAGAUUAUGA | 0.00946 ± 0.0037
UAGUCUGUCACCUUCUCUGAGAGACUUAACA | 0.145 ± 0.024
UAGUGACAGAGCUUCUCUGAGAGAUAAACA | 0.0214 ± 0.0056
UAGUGACAGUCCGUCUCUGAGAGAUUAACA | 0.0557 ± 0.0066
UAGUCUGUACCUUCUCUGAGAGAUUAACA | 0.171 ± 0.011
UAGUGACACUCCUUCUCAGAGAGAUUAACA | 0.0439 ± 0.0078
UAGUCAGUCACCUUCUCUGAGAGAUUAUGA | 0.0793 ± 0.02
UAGUCUGUCACCUUCACUGAGAGAAUAACA | 0.0651 ± 0.023
UAGUGAGUCACCUUCUCUCAGAGAUAAACA | 0.0162 ± 0.008
UAGUCUGUAACCUUCUCUGAGAGAUUAACA | 0.182 ± 0.011
UAGUGACAGUGCUUCUCUGAGAGAUUUAGA | < 0.0001
UAGUGACACACCAUCUCUCAGAGAUUAACA | 0.0222 ± 0.006
UAGUGUGUCACCAUCACUGAGAGAUUAACA | 0.157 ± 0.012
UAGUGACUCACCUUCUCUGUGAGAUUAAGA | 0.0223 ± 0.0049
UAGUGACAGAGCUUCUCUCAGAGAUUAACA | 0.0112 ± 0.0039
UAGUGAGUCACCUUGUCUCAGAGAUUAACA | 0.0277 ± 0.0064
UAGUGACACACCUUCAGUGAGAGAUUAAGA | 0.0275 ± 0.011
UAGUGACAGACGUUCUCUGAGAGAUAAACA | 0.0112 ± 0.0046
UAGUGACAGUGGUUCUCUGACAGAUUAACA | < 0.0001
UAGUGUGUCACCAUGUCUGAGAGAUUAACA | 0.0676 ± 0.0067
UAGUGACUGUCCUUCUCUGAGAGAUUAACA | 0.2 ± 0.016
UAGUGACACACCUUCUGUGAGAGAUUUACA | 0.0481 ± 0.016
UAGUGACUCAGCUUCUCUGAGAGAUAAACA | 0.0258 ± 0.0049
UAGUGAGACACCUUCUCUGAGAGAUUAUCA | 0.138 ± 0.035

Sequence | pre-steady-state target cleavage rate
UAGUCUGUCACCUAUCUCUGAGAGAUUAACA | 0.155 ± 0.01
UAGUGAGUCACCUUCUCAGAGAGUUUAACA | 0.143 ± 0.045
UAGUGACAGUCCUUCUCUGAGUCUUUAUGA | < 0.0001
UAGUGAGUCACCUUCUCUGACGAGAUUAACA | 0.0343 ± 0.011
UAGUGACAGUCCUUUUCUGAGAGAUUAACA | 0.0721 ± 0.0096
UAGUGACUCUCCUUCUCUGAGACAUUAACA | 0.0732 ± 0.01
UAGUGAGUCACGAACUCUGAGAGAUUAAGA | 0.0091 ± 0.0034
UAGUGUGAGUCCUUCUCUGAGAGAUUAACA | 0.0652 ± 0.014
UAGUGACUCACCUUCUCUGGAGAUUAACA | 0.00403 ± 0.0035
UAGUGAGUCAGCUUCUGUGAGAGAUUAACA | 0.127 ± 0.0085
UAGUGACACACGUUCUCUGAGAGAUUAUGA | 0.0084 ± 0.0028
UAGUGACUGACCUACUCUGAGAGAUUAACA | 0.113 ± 0.011
UAGUGACACACCUUCUCUGAGAGCAUUAACA | 0.179 ± 0.022
UAGUGUGUCUCCUUCACUGAGAGAUUAACA | 0.0568 ± 0.0074
UAGUGUGUCACGUUCUGUGAGAGAUUAACA | 0.144 ± 0.011
UAGUGACUCACCUUCUCUGAUAGAUUAACA | 0.0701 ± 0.008
UAGUGACUCUCCUUCUCUGAGAGAUAAACA | 0.055 ± 0.0098
UAGUGACAGACCUUCACUGAGAGAUUAUCA | 0.032 ± 0.014
UAGUGACAGUCCUUCUCUGGGAGAUUAACA | 0.0569 ± 0.0073
UAGUGACACACCAUCUGUGAGAGAUUAACA | 0.067 ± 0.01
UAGUCAGUGACCUUCUCUGAGAGAUUAACA | 0.155 ± 0.0087
UAGUGACACACGAACUCUGAGAGAUUAACA | 0.00382 ± 0.0018
UAGUGACACACCAUCUCUGAGAGAAUAACA | 0.015 ± 0.0067
UAGUGAGUCACCUUCUCUGGAGAUUAACA | 0.0188 ± 0.0076

Sequence | pre-steady-state target cleavage rate
UAGUGUGUCAGCUUCUCUGAGAGAUUUACA | 0.072 ± 0.018
UAGUGACUCACGAUCUCUGAGAGAUUAACA | 0.0452 ± 0.0036
UAGUGACAGUCCUUCUGUGAGAGUUUAACA | 0.0064 ± 0.0021
UAGUCUGUCACCUUCUCUGACAGAUUAACA | 0.0146 ± 0.0062
UAGUCUGUCACCUACUCUGAGAGAAUAACA | 0.0882 ± 0.017
UAGUGAGUCACCUUCUGUGUGAGAUUAACA | 0.0434 ± 0.0067
UAGUGACUCAGCUUCUCUGAGAGAUUAUGA | 0.0039 ± 0.0032
UAGUCAGUCACCUUCUCUGACAGAUUAACA | 0.0294 ± 0.0084
UAGUGACACACCUUCUCUGAUAGAUUAACA | 0.0627 ± 0.0081
UAGUGUGUCACCUUCUCUGAGAGAUUAACCA | 0.236 ± 0.021
UAGUGAGUCACCUUCUCUGACACAUUAACA | 0.00545 ± 0.0036
UAGUGACUCACUCUUCUCUGAGAGAUUAACA | 0.0796 ± 0.0079
UAGUGACAGACCCUCUCUGAGAGAUUAACA | 0.0901 ± 0.019
UAGUGACUGACCUUCUCAGAGAGAUUAACA | 0.0529 ± 0.0074
UAGUCUGUCACCAUCUCUGAGAGAAUAACA | 0.127 ± 0.024
UAGUGACAGUGCUUCUCUGAGACUUUAACA | < 0.0001
UAGUCUCUCACCUUCUCUGACAGAUUAACA | 0.0512 ± 0.0076
UAGUGACAGUGGAUCUCUGAGUAGAUUAACA | < 0.0001
UAGUGACAGUCCUUCUCUGAGAGAUUUACA | 0.0361 ± 0.0071
UAGUGACAGUCCUUCUCUGAGACAUUAACA | 0.00891 ± 0.0025
UAGUGACACACCUUCUCUGAGAGAUUUAACA | 0.243 ± 0.023
UAGUGACACACCUACUCUGAGAGUUUAACA | 0.0465 ± 0.012
UAGUCUGACACCUUCUCAGAGAGAUUAACA | 0.0959 ± 0.01
UAGUGACAGUGGAAGACUGAGACAUUAAGA | < 0.0001
